Data from PubChem BioAssay (NCI).
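Protocol summary: plate cells (96-well), add compound at 5 concentrations, incubate 48 h, interpolate endpoints linearly. At the GI50, growth is halved. TGI is the concentration that stops growth completely.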 Activity calls are given as the source filed them.

Columns and labels:
Assay in all cases: growth of human tumour cells (NCI), 48 h
CCRF-CEM leukemia = system: CCRF-CEM leukemia
HOP-92 NSCLC = system: HOP-92 NSCLC
NCI-H226 lung = system: NCI-H226 lung
NCI-H23 lung = system: NCI-H23 lung
SR leukemia = system: SR leukemia
UACC-257 melanoma = system: UACC-257 melanoma

Cc1cccc(Oc2nccc(-c3c(-c4ccc(F)cc4)ncn3C3CCNCC3)n2)c1C
GI50 (CCRF-CEM leukemia): inactive
TGI (CCRF-CEM leukemia): 20.7 µM
GI50 (HOP-92 NSCLC): inactive
TGI (HOP-92 NSCLC): 13 µM
GI50 (NCI-H226 lung): inactive
TGI (NCI-H226 lung): 23.1 µM
GI50 (NCI-H23 lung): inactive
TGI (NCI-H23 lung): > 25 µM
GI50 (SR leukemia): inactive
TGI (SR leukemia): 14.6 µM
GI50 (UACC-257 melanoma): inactive
TGI (UACC-257 melanoma): 8.77 µM
